Test results from the supplement of paper PMC8728848.
The other results are listed elsewhere or left out.

Tests used:
Experiment in all cases: glycan array binding signal (z-score within array); higher = stronger binding
Details in all cases: glycan notation: IUPAC condensed, linker removed
[1] = biological target: GlcNAc(b1-4)GlcNAc(b1-4)GlcNAc(b1-4)GlcNAc(b1-4)GlcNAc(b1-4)GlcNAc
Method in brief: (§1)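 Glycan array data were curated from 3228 arrays in the Consortium for Functional Glycomics database and kept only where the protein sequence was available. Glycan names were converted to IUPAC-condensed notation, and columns mapping to the same glycan were averaged. The binding signal is a within-array Z-score, averaged across arrays of the same protein sequence at different concentrations or buffers and across linkers. Negative Z-scores can be read as non-binding.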

[2] = biological target: GlcNAc(b1-4)[GlcNAc(b1-6)]GalNAc
Method in brief: as §1

[3] = biological target: GlcNAc(b1-6)Gal(b1-4)GlcNAc
Method in brief: as §1

[4] = biological target: GlcNAc(b1-6)GalNAc
Method in brief: as §1

[5] = biological target: GlcNAc6S(b1-3)Gal(b1-4)GlcNAc
Method in brief: as §1

[6] = biological target: Kdn(a2-3)Gal(b1-3)GalNAc
Method in brief: as §1

[7] = biological target: Kdn(a2-3)Gal(b1-3)GlcNAc
Method in brief: as §1

[8] = biological target: Kdn(a2-3)Gal(b1-4)Glc
Method in brief: as §1

[9] = biological target: Kdn(a2-3)Gal(b1-4)GlcNAc
Method in brief: as §1

[10] = biological target: Kdn(a2-3)Gal(b1-4)[Fuc(a1-3)]GlcNAc
Method in brief: as §1

[11] = biological target: Kdn(a2-6)Gal(b1-4)GlcNAc
Method in brief: as §1

[12] = biological target: Man(a1-2)Man(a1-2)Man(a1-3)Man
Method in brief: as §1

[13] = biological target: Man(a1-2)Man(a1-2)Man(a1-6)[Man(a1-3)]Man
Method in brief: as §1

[14] = biological target: Man(a1-2)Man(a1-3)Man
Method in brief: as §1

[15] = biological target: Man(a1-2)Man(a1-3)[Man(a1-2)Man(a1-6)]Man
Method in brief: as §1

[16] = biological target: Man(a1-2)Man(a1-3)[Man(a1-2)Man(a1-6)]Man(a1-6)[Man(a1-2)Man(a1-2)Man(a1-3)]Man
Method in brief: as §1

[17] = biological target: Man(a1-2)Man(a1-3)[Man(a1-2)Man(a1-6)]Man(a1-6)[Man(a1-2)Man(a1-2)Man(a1-3)]Man(b1-4)GlcNAc(b1-4)GlcNAc
Method in brief: as §1

[18] = biological target: Man(a1-2)Man(a1-3)[Man(a1-6)]Man(a1-6)[Man(a1-2)Man(a1-3)]Man(b1-4)GlcNAc(b1-4)GlcNAc
Method in brief: as §1

[19] = biological target: Man(a1-2)Man(a1-6)[Man(a1-3)]Man(a1-6)[Man(a1-2)Man(a1-2)Man(a1-3)]Man
Method in brief: as §1

[20] = biological target: Man(a1-2)Man(a1-6)[Man(a1-3)]Man(a1-6)[Man(a1-2)Man(a1-2)Man(a1-3)]Man(b1-4)GlcNAc(b1-4)GlcNAc
Method in brief: as §1

[21] = biological target: Man(a1-3)[Man(a1-6)]Man
Method in brief: as §1

[22] = biological target: Man(a1-3)[Man(a1-6)]Man(a1-6)[Man(a1-2)Man(a1-3)]Man(b1-4)GlcNAc(b1-4)GlcNAc
Method in brief: as §1

[23] = biological target: Man(a1-3)[Man(a1-6)]Man(a1-6)[Man(a1-3)]Man
Method in brief: as §1

[24] = biological target: Man(a1-3)[Man(a1-6)]Man(a1-6)[Man(a1-3)]Man(b1-4)GlcNAc(b1-4)GlcNAc
Method in brief: as §1

[25] = biological target: Man(a1-3)[Man(a1-6)]Man(b1-4)GlcNAc(b1-4)GlcNAc
Method in brief: as §1

[26] = biological target: Man(a1-3)[Man(a1-6)]Man(b1-4)GlcNAc(b1-4)[Fuc(a1-6)]GlcNAc
Method in brief: as §1

[27] = biological target: Man(a1-6)Man
Method in brief: as §1

[28] = biological target: Man(b1-4)GlcNAc
Method in brief: as §1

[29] = biological target: MurNAc(b1-4)GlcNAc
Method in brief: as §1

[30] = biological target: Neu5Ac(a2-3)Gal
Method in brief: as §1

[31] = biological target: Neu5Ac(a2-3)Gal(b1-3)GalNAc
Method in brief: as §1

[32] = biological target: Neu5Ac(a2-3)Gal(b1-3)GalNAc(b1-3)Gal(a1-4)Gal(b1-4)Glc
Method in brief: as §1

[33] = biological target: Neu5Ac(a2-3)Gal(b1-3)GalNAc(b1-4)[Neu5Ac(a2-3)]Gal(b1-4)Glc
Method in brief: as §1

[34] = biological target: Neu5Ac(a2-3)Gal(b1-3)GalNAc(b1-4)[Neu5Ac(a2-8)Neu5Ac(a2-3)]Gal(b1-4)Glc
Method in brief: as §1

[35] = biological target: Neu5Ac(a2-3)Gal(b1-3)GalNAc6S
Method in brief: as §1

[36] = biological target: Neu5Ac(a2-3)Gal(b1-3)GlcNAc
Method in brief: as §1

[37] = biological target: Neu5Ac(a2-3)Gal(b1-3)GlcNAc(b1-2)Man
Method in brief: as §1

[38] = biological target: Neu5Ac(a2-3)Gal(b1-3)GlcNAc(b1-2)Man(a1-3)[GlcNAc(b1-4)][Neu5Ac(a2-3)Gal(b1-3)GlcNAc(b1-2)Man(a1-6)]Man(b1-4)GlcNAc(b1-4)GlcNAc
Method in brief: as §1

[39] = biological target: Neu5Ac(a2-3)Gal(b1-3)GlcNAc(b1-2)Man(a1-3)[Neu5Ac(a2-3)Gal(b1-3)GlcNAc(b1-2)Man(a1-6)]Man(b1-4)GlcNAc(b1-4)GlcNAc
Method in brief: as §1

[40] = biological target: Neu5Ac(a2-3)Gal(b1-3)GlcNAc(b1-3)Gal(b1-3)GlcNAc
Method in brief: as §1

[41] = biological target: Neu5Ac(a2-3)Gal(b1-3)GlcNAc(b1-3)Gal(b1-4)GlcNAc
Method in brief: as §1

[42] = biological target: Neu5Ac(a2-3)Gal(b1-3)GlcNAc(b1-3)GalNAc
Method in brief: as §1

[43] = biological target: Neu5Ac(a2-3)Gal(b1-3)GlcNAc(b1-4)Gal(b1-4)Glc
Method in brief: as §1

[44] = biological target: Neu5Ac(a2-3)Gal(b1-3)GlcNAc(b1-6)GalNAc
Method in brief: as §1

[45] = biological target: Neu5Ac(a2-3)Gal(b1-3)GlcNAc6S
Method in brief: as §1

B1: FimA-N3 (Actinomyces oris) (protein)
chain: MHHHHHHSSGVDLGTENLYFQSNAGLQGAQFQLYKAKNAYANTCSNEKEGAPIAINGQTTLTTDAQGAIDIKGLFISDSIDGADRDNQVNAMERCYVLVETKAPAGYVLPAGNGAATPVKVKAGEETTDN
glycan array binding signal (z-score) [1]: 0.029 | glycan array binding signal (z-score) [2]: 0.481 | glycan array binding signal (z-score) [3]: -0.136 | glycan array binding signal (z-score) [4]: 1.02 | glycan array binding signal (z-score) [5]: -0.481 | glycan array binding signal (z-score) [6]: -0.514 | glycan array binding signal (z-score) [7]: -0.302 | glycan array binding signal (z-score) [8]: -0.291 | glycan array binding signal (z-score) [9]: -0.14 | glycan array binding signal (z-score) [10]: -0.499 | glycan array binding signal (z-score) [11]: -0.558 | glycan array binding signal (z-score) [12]: -0.398 | glycan array binding signal (z-score) [13]: -0.489 | glycan array binding signal (z-score) [14]: -0.379 | glycan array binding signal (z-score) [15]: -0.586 | glycan array binding signal (z-score) [16]: -0.469 | glycan array binding signal (z-score) [17]: 0.019 | glycan array binding signal (z-score) [18]: -0.663 | glycan array binding signal (z-score) [19]: -0.315 | glycan array binding signal (z-score) [20]: 0.133 | glycan array binding signal (z-score) [21]: -0.131 | glycan array binding signal (z-score) [22]: 0.179 | glycan array binding signal (z-score) [23]: -0.288 | glycan array binding signal (z-score) [24]: -0.253 | glycan array binding signal (z-score) [25]: -0.463 | glycan array binding signal (z-score) [26]: -0.616 | glycan array binding signal (z-score) [27]: 3.05 | glycan array binding signal (z-score) [28]: -0.361 | glycan array binding signal (z-score) [29]: 0.17 | glycan array binding signal (z-score) [30]: 0.307 | glycan array binding signal (z-score) [31]: -0.209 | glycan array binding signal (z-score) [32]: -0.314 | glycan array binding signal (z-score) [33]: -0.346 | glycan array binding signal (z-score) [34]: -0.304 | glycan array binding signal (z-score) [35]: -0.036 | glycan array binding signal (z-score) [36]: -0.431 | glycan array binding signal (z-score) [37]: 0.059 | glycan array binding signal (z-score) [38]: -0.419 | glycan array binding signal (z-score) [39]: -0.484 | glycan array binding signal (z-score) [40]: -0.131 | glycan array binding signal (z-score) [41]: 1.01 | glycan array binding signal (z-score) [42]: -0.423 | glycan array binding signal (z-score) [43]: -0.649 | glycan array binding signal (z-score) [44]: 0.038 | glycan array binding signal (z-score) [45]: -0.291
